# Data as given in PubChem BioAssay AID1745853 (National Center for Advancing Translational Sciences (NCATS), 2022).
# The list shows a part of the results. The main result of the screen is listed elsewhere. These columns were measured beside it and carry no call.
# Key:
# Experiment in all cases: Primary Screen for Target Class Profiling of Small Molecule Inhibitors of Methyltransferases
# [1] = target: Glycine N-methyltransferase (Homo sapiens) (UniProt Q14749); settings: purified enzyme, MTase-Glo SAH luminescence; measured here: GNMT inhibition; at 40 µM; stronger effect = lower value
# Procedure, shortened: (§1)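 Each enzyme was reacted with SAM and its substrate, with compounds tested once at 40 uM; SAH formed was read by MTase-Glo luminescence.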
# [2] = target: Guanidinoacetate N-methyltransferase (Homo sapiens) (UniProt Q14353); settings: purified enzyme, MTase-Glo SAH luminescence; measured here: GAMT inhibition; at 40 µM; stronger effect = lower value
# Procedure, shortened: as §1
# [3] = target: Histamine N-methyltransferase (Homo sapiens) (UniProt P50135); settings: purified enzyme, MTase-Glo SAH luminescence; measured here: HNMT inhibition; at 40 µM; stronger effect = lower value
# Procedure, shortened: as §1
# [4] = target: Nicotinamide N-methyltransferase (Homo sapiens) (UniProt P40261); settings: purified enzyme, MTase-Glo SAH luminescence; measured here: NNMT inhibition; at 40 µM; stronger effect = lower value
# Procedure, shortened: as §1
# [5] = target: Phenylethanolamine N-methyltransferase (Homo sapiens) (UniProt P11086); settings: purified enzyme, MTase-Glo SAH luminescence; measured here: PNMT inhibition; at 40 µM; stronger effect = lower value
# Procedure, shortened: as §1
# % is set by controls: 0 for no effect and ±100 for the full control effect.
SMILES,"activity change, negative = inhibition [1] [%]","activity change, negative = inhibition [2] [%]","activity change, negative = inhibition [3] [%]","activity change, negative = inhibition [4] [%]","activity change, negative = inhibition [5] [%]"
COc1ccc(CNC(=O)O[C@H]2COCCN(c3nc4ccccc4s3)C2)cc1,-10.9,-5.87,-10.5,-11.2,-3.24
CC(C)=CCCC1(C)C2CCC1(C)C(O)C2 (configuration not stated),-13.8,-6.66,-5.21,-26.7,-2.53
NC(N)=[N+]1CCc2ccccc2C1,7.03,3.4,10.9,-6.7,1.59
Cc1ccncc1C(=O)N1CCCn2ccnc2C1c1ccccc1 (configuration not stated),-3.98,-6.47,-1.12,-5.49,-19.1
Cc1cccc(N2C(=O)c3cc(C4CC4)nn3CC2(C)C(=O)NC2CCCCCC2)c1C (configuration not stated),-1.09,4.67,-0.56,5.7,-0.283
O=C(O)/C=C/c1ccc(O)c(O[C@@H]2O[C@H](CO)[C@@H](O)[C@H](O)[C@H]2O)c1,0,7.73,7.38,-2.86,7.08
Cc1ccc(Cn2c(=O)c3ccc(C(=O)NCC(C)C)cc3n3c(=O)n(CC(=O)NC(C)(C)C)nc23)cc1,2.11,5.65,2.7,1.38,-1.52
CCOc1ccccc1CNC(=O)c1cc2n(n1)CC(C)(C(=O)NC1CCCCC1)N(C)C2=O (configuration not stated),4.95,-2.95,0.532,1.35,-1.77
COc1ccc(CCNC(=O)CCc2nnc3n(Cc4ccc(C)cc4)c(=O)c4ccccc4n23)cc1OC,-4.59,1.37,9.51,12.5,3.41
CCOC(=O)c1cc2n(n1)CC(C)(C(=O)NC1CCC(C)CC1)N(Cc1ccc(OCC)cc1)C2=O (configuration not stated),1.58,0,4.72,-8.41,1.18
CCC(C(=O)NCc1ccccc1F)n1ccc2cc(S(=O)(=O)N3CCCCC3)ccc21 (configuration not stated),2.88,5.44,3.16,-1.39,0.644
Cc1cc(C)n(C2CCN(c3nccc(-c4ccccn4)n3)C2)n1 (configuration not stated),-9.68,-11.2,-6.07,-18.7,-12.9
CCOC(=O)c1cc2n(n1)CC(C)(C(=O)NC1CCC(C)CC1)N(c1cccc(C)c1C)C2=O (configuration not stated),7.88,1.17,8.75,4.46,5.44
CCCc1c(OCCCOc2ccc(OCC(=O)O)cc2)ccc(C(C)=O)c1O,-29.5,4.29,-6.18,-14,6.77
Cc1ccc(Cn2c(=O)c3ccccc3n3c(CCC(=O)NCc4ccccc4Cl)nnc23)cc1,-1.86,1.24,7.71,-8.04,0.541
CCCn1c(=O)c2ccc(C(=O)NC(C)CC)cc2n2c(=O)n(Cc3cccc(OC)c3)nc12 (configuration not stated),3,0,5.62,-2.21,3.24
O=C(Nc1ccc(Cl)nc1)c1cccn2cncc12,-16.2,-5.65,-6.4,-12.7,5.54
C=C(C(=O)O)C1CC(O)C2(C)CCCC(=C)C2C1 (configuration not stated),-1.26,-5.62,-7.37,-20,-1.5
COc1cccc(CN2C(=O)c3cc4oc(C)cc4n3CC2(C)C(=O)NC2CCCCCC2)c1OC (configuration not stated),-0.709,0,2.81,-2.17,-1.78
COCCN1C(=O)c2cc(-c3ccc(OC)c(OC)c3)nn2CC1(C)C(=O)NC1CCCCC1 (configuration not stated),0.767,2.8,6.42,11,1.39

SMILES,"activity change, negative = inhibition [1] [%]","activity change, negative = inhibition [2] [%]","activity change, negative = inhibition [3] [%]","activity change, negative = inhibition [4] [%]","activity change, negative = inhibition [5] [%]"
CC(=O)NCCCC(=O)N1CCOC2(CCN(C(=O)NC(C)C)CC2)C1,-4.14,-7.55,-5.09,-10.7,-6.89
O=C1NCC2(CCN(C(=O)c3ccccc3C3CCNC3)CC2)O1 (configuration not stated),-3.24,-5.6,-3.74,-14.6,-6.71
CC(=O)C1=C(O)C2c3c[nH]c4cccc(c34)CC2C(C)(C)N(C)C1=O (configuration not stated),2.43,,4.43,,
COc1ccc(NC(=O)CCc2nnc3n(Cc4ccc(F)cc4)c(=O)c4ccccc4n23)cc1,-9.74,0.194,-11.6,-8.24,-13
O=S(=O)(c1cccc2c(Cl)cccc12)N1CCCNCC1,-2.39,9.61,3.02,-3.45,4.9
CCc1ccccc1NC(=O)N1CCn2cccc2C1C(C)C (configuration not stated),14.2,1.17,6.25,5.61,9.81
Clc1cccc(-n2nnnc2NCc2ccccc2Oc2ccccn2)c1Cl,2.14,3.05,6.15,-22.3,-6.57
CCc1ccc(CN2C(=O)c3cc(-c4ccco4)nn3CC2(C)C(=O)NCCC(C)C)cc1 (configuration not stated),-0.193,2.5,-1.5,3.21,0.947
COc1ccc(C(=O)Cn2nc3n(CCc4ccccc4)c(=O)c4ccccc4n3c2=O)cc1,3.38,0,4.63,-0.01,-2.74
Cc1nc2ccccn2c1C(=O)NC(C)c1cnn(-c2ccccn2)c1C (configuration not stated),-4.01,-4.5,-2.99,-27.7,-0.356
CCc1ccc(N2C(=O)c3cc4sccc4n3CC2(C)C(=O)NC2CCCCC2C)cc1 (configuration not stated),-0.775,0,-1.47,0.274,-7.17
Clc1ccc2oc([C@H]3CCN(Cc4ccccn4)C3)nc2c1,-9.91,-9.72,-10.1,-20.3,-7.27
CCCCCNC(=O)c1sc(=S)n2c1[nH]c(=O)c1ccc(C(=O)OC)cc12,-38.2,0,6.88,-24.5,-8.08
C=C1C(=O)O[C@H](CCC)[C@H]1C(=O)O,2.6,8.74,3.31,-10.6,-3.04
COc1ccc(S(=O)(=O)NCC2Cn3cccc3C(=O)N2Cc2ccccc2)cc1 (configuration not stated),-15.3,-5.53,-2.82,-7.8,-5.4
Cc1ccc(CN2C(=O)c3ccc(-c4ccccc4)n3CC2(C)C(=O)NC2CCCCC2)cc1 (configuration not stated),6.81,0.874,6.33,4.73,4.06
CC[C@]12C=CCN3CC[C@@]4(c5cc([C@@]6(C(=O)OC)C[C@H]7C[C@@H](C(C)(F)F)CN(Cc8c6[nH]c6ccccc86)C7)c(OC)cc5N(C)[C@H]4[C@@](O)(C(=O)OC)[C@@H]1OC(C)=O)[C@@H]32,3.43,11.8,7.36,-4.75,2.38
COc1ccc(CCNC(=O)CCc2nnc3n(CCC(C)C)c(=O)c4ccccc4n23)cc1OC,-8.04,1.97,-1.32,-23.9,-4.79
Cc1nc2cc(S(=O)(=O)N3CCOCC3)ccc2n1CCNC(=O)C1CC1,-4.68,-10,-1.96,-11.9,-9.3
O=C(NCC1CN(C(=O)c2cnccn2)CC12CCOCC2)N1CCCC1 (configuration not stated),2.04,1.23,2.81,-2.73,0.044

SMILES,"activity change, negative = inhibition [1] [%]","activity change, negative = inhibition [2] [%]","activity change, negative = inhibition [3] [%]","activity change, negative = inhibition [4] [%]","activity change, negative = inhibition [5] [%]"
O=C(NCc1cccc(C(F)(F)F)c1)c1nc2sccn2c1-c1ccccc1,-10.5,-10.1,-4.69,-22.8,-14.6
Cc1ccc(CN2CCc3nc(C(=O)Nc4cccnc4)oc3CC2)o1,-15.4,-11.8,-9.98,-13.9,-8.46
CC1(C(=O)NC2CCCCCCC2)Cn2c(cc3occc32)C(=O)N1Cc1ccccc1F (configuration not stated),3.77,0,5.91,0.241,0.845
O=C(Nc1ccccc1)N1CCC(N(C(=O)C2CC2)C2CCOCC2)CC1,-6.13,-14.6,-4.33,-14.7,-6.18
CC/C=C/C(O)C(O)C1=C(C)C(=O)C2(O1)C(=O)NC(OC)(C(=O)c1ccccc1)C2O (configuration not stated),-0.84,-2.45,8.91,-15.7,-10.9
COC(=O)c1ncn2c1C(=O)N(c1cc(C)ccc1C)C(C)(C(=O)NC1CCCCCC1)C2 (configuration not stated),5.16,1.42,0.58,10.9,2.44
O=C(NC1CC1)C1CCc2nnc(-c3cccnc3)n21 (configuration not stated),-2.36,0.334,-4.36,-2.76,-3.96
CCCC(=O)Nc1cccc(NC(=O)c2ccccc2Br)c1,0.332,1.58,6.57,-4.55,5.96
CCCN1C(=O)c2c(C(=O)NCCC3=CCCCC3)ncn2CC1(C)C(=O)NCCC(C)C (configuration not stated),-1.24,0.907,4.78,-7.68,6.25
CO[C@H]1C[C@@H]2CC[C@@H](C)[C@@](O)(O2)C(=O)C(=O)N2CCCC[C@H]2C(=O)O[C@H]([C@H](C)C[C@@H]2CC[C@H](n3cnnn3)[C@H](OC)C2)CC(=O)[C@H](C)/C=C(\C)[C@@H](O)[C@@H](OC)C(=O)[C@H](C)C[C@H](C)/C=C/C=C/C=C/1C,2.87,7.17,8.69,-7.78,6.39
Cc1ccc(Cn2c(=O)c3ccc(C(=O)NCC(C)C)cc3n3c(=O)n(Cc4cccc(F)c4)nc23)cc1,6.1,2.2,6,4.58,6.61
CC1CC(=O)C2=C(CCC3(O)C(O)c4c(O)cccc4C(=O)C23O)C1 (configuration not stated),-4.9,-0.29,4.2,-12.2,-10.8
COC(=O)c1ncn2c1C(=O)N(CCc1cccs1)C(C)(C(=O)NC1CCCC1)C2 (configuration not stated),0.593,4.23,1.03,0.666,2.22
Cn1c(=O)oc2cc(S(=O)(=O)NCCc3nc(-c4ccc(F)cc4)n[nH]3)ccc21,1.52,4.6,-2.04,-2.97,-3.48
CCOc1ccc(N2C(=O)c3cc4occc4n3CC2(C)C(=O)NC2CCCCCC2)cc1 (configuration not stated),1.15,0,2.96,5.43,0.605
Cc1ccc(CNC(=O)c2cc3n(n2)CC(C)(C(=O)NCc2ccccc2)N(C)C3=O)o1 (configuration not stated),3.06,0.327,5.3,1.99,2.63
CCO[C@H]1CN(C(=O)C(C)(C)Oc2ccc3c(c2)CCC3)C[C@@H]1O,-7.9,-8.17,-3.35,-8.2,0.664
CCCc1cc(CN(C)C(=O)c2ccc3c(c2)[nH]c(=O)n3C2CCC(O)CC2)[nH]n1 (configuration not stated),-1.14,0.673,2.24,-2.22,-3.97
CC1(C)Cc2nc(C(C)(C)C)ncc2C(NC(=O)CCCN2CCCC2=O)C1 (configuration not stated),-0.137,-0.576,3.54,-0.271,-0.067
Cc1cc(C)cc(NC(=O)Cn2nc3n(CCC(C)C)c(=O)c4ccc(C(=O)NC(C)C)cc4n3c2=O)c1,4.96,4.27,-0.742,2.06,3.42
